# Test results taken from the supplement of paper PMC9174493.
# The list shows a part of the results. Single values of this set are uncertain. Values with irradiation are relative to irradiated vehicle.
# How the values were obtained:
# [1] = system: A549-Dual; assay: NF-kB reporter (SEAP) activity, viability-corrected, relative to vehicle (fold change vs vehicle); higher = more activation of STING-IRF / NF-kB immune response reporter; conditions: 10 µM
# [2] = system: A549-Dual; assay: ISRE reporter (Lucia luciferase) activity, viability-corrected, relative to vehicle (fold change vs vehicle); higher = more activation of STING-IRF / NF-kB immune response reporter; conditions: 10 µM
# 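For NF-kB reporter (SEAP) activity, viability-corrected, relative to vehicle in this document: viability correction based on the alamar blue assay, with concentrations leaving 10% survival or less dropped.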
SMILES,NF-kB reporter ([1]; irradiation: 8 Gy/4 fr),NF-kB reporter ([1]; irradiation: none),ISRE reporter ([2]; irradiation: 8 Gy/4 fr),ISRE reporter ([2]; irradiation: none)
CCC(C)(Oc1ccc(C2(c3ccc(OC(C)(CC)C(=O)O)cc3)CCCCC2)cc1)C(=O)O (stereo not drawn) [Clinofibrate],0.958,1.17,0.988,1.47
O=C1c2cccc3c2C(CCC3)CN1C1CN2CCC1CC2 (stereo not drawn) [Palonosetron],0.8,1.35,0.952,1.08
OCC1OC(OC2(CCl)OC(CCl)C(O)C2O)C(O)C(O)C1Cl (stereo not drawn) [Sucralose],0.502,0.491,0.542,0.591
CCN(CC)CC(=O)Nc1c(C)cccc1C [Lidocaine],0.646,0.915,0.577,0.804
NCC1OC(OC2C(N)CC(N)C(OC3OC(CO)C(O)C(N)C3O)C2O)C(O)C(O)C1O.O=S(=O)(O)O (stereo not drawn) [Kanamycin sulfate],0.809,0.923,0.834,0.882
CC(O)C1C(=O)N2C(C(=O)[O-])=C(C3CCCO3)SC12.[Na+] (stereo not drawn) [Faropenem Sodium],0.983,1.03,0.975,0.913
O=c1cc(-c2ccc(O)cc2)oc2c(C3OC(CO)C(O)C(O)C3O)c(O)cc(O)c12 (stereo not drawn) [Vitexin],0.632,0.726,0.518,0.584
CC(C)N1CCN(c2ccc(OCC3COC(Cn4cncn4)(c4ccc(Cl)cc4Cl)O3)cc2)CC1 (stereo not drawn) [Terconazole],0.818,0.877,0.865,1.77
Cn1cncc1C(N)(c1ccc(Cl)cc1)c1ccc2c(c1)c(-c1cccc(Cl)c1)cc(=O)n2C (stereo not drawn) [Tipifarnib],0.97,1.37,0.653,1.82
C=CCc1ccc(O)c(OC)c1 [Eugenol],0.936,1.02,0.971,0.936
CCC(=O)O.CCC(=O)O.O=C(Nc1cccc(C2=NCCN2)c1)Nc1cccc(C2=NCCN2)c1 [Imidocarb dipropionate],0.459,0.702,0.482,0.538
O=C(O)C(O)C(O)C(=O)O.c1cnc2cc3c(cc2n1)C1CNCC3C1 [Varenicline Tartrate],0.521,0.72,0.619,0.765
CCC(C)C(=O)OC1CC(C)C=C2C=CC(C)C(CCC3CC(O)CC(=O)O3)C21 (stereo not drawn) [Lovastatin],1.11,1.95,0.383,1.15
Cc1cn(C2CC(O)C(CO)O2)c(=O)[nH]c1=O (stereo not drawn) [Telbivudine],0.764,0.894,0.722,0.712
COC(=O)c1cccnc1 [Methyl nicotinate],0.996,0.962,0.939,0.707
CC(O)C(=O)[O-].[NH4+] (stereo not drawn) [Ammonium lactate],0.985,0.73,0.959,0.656
C=C1CC23CCC4C(C)(C(=O)OC5OC(CO)C(O)C(O)C5O)CCCC4(C)C2CCC1(OC1OC(CO)C(O)C(O)C1OC1OC(CO)C(O)C(O)C1O)C3 (stereo not drawn) [Stevioside],1.1,0.839,1,0.695
Nc1ccc(S(=O)(=O)Nc2ncccn2)cc1 [Sulfadiazine],0.629,1.16,0.71,0.904
CCCCCC(C)(O)/C=C/C1C(O)CC(O)C1C/C=C\CCCC(=O)O (stereo not drawn) [Carboprost],1.38,1,1.44,1.12
CCCCCCCCc1ccc(CCC(N)(CO)CO)cc1.Cl [Fingolimod (FTY720) HCl],0.701,1.1,0.794,1.6
Nc1ccc(S(=O)(=O)NC(=O)c2ccccc2)cc1 [Sulfabenzamide],0.797,0.892,0.712,0.707
CNC1CCCN(c2c(F)cc3c(=O)c(C(=O)O)cn(C4CC4)c3c2OC)C1 (stereo not drawn) [Balofloxacin],0.871,0.944,0.678,0.952
NCC1OC(OC2C(N)CC(N)C(O)C2OC2OC(CO)C(O)C2O)C(N)C(O)C1O.O=S(=O)(O)O (stereo not drawn) [Ribostamycin Sulfate],0.794,0.784,0.812,0.935
Cc1ccc(C(=O)c2ccc(CC(=O)[O][Na])n2C)cc1.O.O [Tolmetin Sodium],0.779,1.56,0.527,2.61
Nc1nc(=O)c2ncn(CCC(CO)CO)c2[nH]1 [Penciclovir],0.761,0.862,0.781,0.77
CC(C)CN(CC(O)C(Cc1ccccc1)NC(=O)OC1COC2OCCC12)S(=O)(=O)c1ccc(N)cc1.CCO (stereo not drawn) [Darunavir Ethanolate],0.991,1.01,0.994,0.901

SMILES,NF-kB reporter ([1]; irradiation: 8 Gy/4 fr),NF-kB reporter ([1]; irradiation: none),ISRE reporter ([2]; irradiation: 8 Gy/4 fr),ISRE reporter ([2]; irradiation: none)
CN(C)CCOc1ccc(/C(=C(/CCCl)c2ccccc2)c2ccccc2)cc1.O=C(O)CC(O)(CC(=O)O)C(=O)O [Toremifene Citrate],0.72,0.811,0.929,1.39
Cc1nnc(C(=O)NC(C)(C)c2nc(C(=O)NCc3ccc(F)cc3)c([O-])c(=O)n2C)o1.[K+] [Raltegravir potassium],0.601,0.86,0.549,0.677
Cc1ccc(C(C)C)cc1O [Carvacrol],0.756,0.687,0.684,0.566
O=C(O)CSCC(=O)NC1CCSC1=O (stereo not drawn) [Erdosteine],0.649,0.859,0.866,0.92
CN1CC2CC1CN2c1cc2c(cc1F)c(=O)c(C(=O)O)cn2C1CC1.CS(=O)(=O)O (stereo not drawn) [Danofloxacin Mesylate],1.1,1.17,0.799,1.13
O=C(Cn1cnnn1)NC1C(=O)N2C(C(=O)O)=C(CSc3nncs3)CSC12 (stereo not drawn) [Ceftezole],1.29,1.4,1.42,1.38
CCCN1CCCCC1C(=O)Nc1c(C)cccc1C (stereo not drawn) [Ropivacaine],0.704,1.21,0.69,0.92
COc1ccc(-c2cc(=O)c3c(O)cc(O)cc3o2)cc1O [Diosmetin],0.836,1.18,0.655,0.842
CNC(CC(C)C)C(=O)NC1C(=O)NC(CC(N)=O)C(=O)NC2C(=O)NC3C(=O)NC(C(=O)NC(C(=O)O)c4cc(O)cc(O)c4-c4cc3ccc4O)C(O)c3ccc(c(Cl)c3)Oc3cc2cc(c3OC2OC(CO)C(O)C(O)C2OC2CC(C)(N)C(O)C(C)O2)Oc2ccc(cc2Cl)C1O (stereo not drawn) [Vancomycin],0.84,1.03,0.799,0.831
CC1=C(/C=C/C(C)=C/C=C/C(C)=C\C(=O)O)C(C)(C)CCC1 [Isotretinoin],0.83,0.841,0.7,0.775
CCCN(CCC)CCc1cccc2c1CC(=O)N2.Cl [Ropinirole HCl],0.527,0.71,0.612,0.733
CC(C)NCC(O)COc1ccc(CC(N)=O)cc1 (stereo not drawn) [Atenolol],0.884,0.987,0.795,0.607
CN1CCCCC1CCN1c2ccccc2Sc2ccc(S(C)=O)cc21.O=S(=O)(O)c1ccccc1 (stereo not drawn) [Mesoridazine Besylate],1.45,0.888,1.52,1.16
C/C(=C(/CCO)SSCC1CCCO1)N(C=O)Cc1cnc(C)nc1N (stereo not drawn) [Fursultiamine],1.23,0.936,1.08,0.777
O=C(O)C(CO)c1ccccc1 (stereo not drawn) [Tropic acid],1.84,3.3,2.1,8.43
OCC1OC(O)C(O)C(O)C1O [D-Galactose],0.807,1.02,0.915,0.823
O=C(OC1CC2CC3CC(C1)N2CC3=O)c1c[nH]c2ccccc12 (stereo not drawn) [Dolasetron],0.609,1.02,0.711,0.761
CN(CCCCCCCCCCN(C)C(=O)Oc1cccc([N+](C)(C)C)c1)C(=O)Oc1cccc([N+](C)(C)C)c1.[Br-].[Br-] [Demecarium Bromide],0.696,1.1,0.551,0.686
CN(C)CCCN1c2ccccc2CCc2ccccc21.Cl [Imipramine HCl],1.28,2.63,0.0872,0.541
CC(=O)N(CC(O)CN(C(C)=O)c1c(I)c(C(=O)NCC(O)CO)c(I)c(C(=O)NCC(O)CO)c1I)c1c(I)c(C(=O)NCC(O)CO)c(I)c(C(=O)NCC(O)CO)c1I (stereo not drawn) [Iodixanol],0.992,0.798,0.609,0.522
CC(C)OC(=O)C(C)(C)Oc1ccc(C(=O)c2ccc(Cl)cc2)cc1 [Fenofibrate],0.931,0.992,0.97,0.878
CCc1c2c(nc3ccc(OC(=O)N4CCC(N5CCCCC5)CC4)cc13)-c1cc3c(c(=O)n1C2)COC(=O)C3(O)CC.Cl.O.O.O (stereo not drawn) [Irinotecan HCl Trihydrate],0.915,1.85,1.71,8.62
Oc1ccc(OCc2ccccc2)cc1 [Monobenzone],2.06,1.98,0.844,2.16
CC12CCC(=O)C=C1CCC1C2C(O)CC2(C)C(C(=O)CO)CCC12 (stereo not drawn) [Corticosterone],0.479,0.714,0.141,0.218
CC(C)(N)CO.Cn1c(=O)c2[nH]c(Br)nc2n(C)c1=O [Pamabrom],0.623,0.693,0.717,0.709
NC(Cc1cc(I)c(Oc2ccc(O)c(I)c2)c(I)c1)C(=O)O (stereo not drawn) [Triiodothyronine],1.18,0.457,1.02,0.46
